Laboratory results from the supplement of paper PMC3334620.
In all, about 33,000 sequences were measured (“E-score (-0.5 to 0.5)”: median about -0.043, highest 2% from about 0.37 on). Some of the results follow.

Molecular target: T1, Upc2 (UniProt Q12151)
T1 sequence: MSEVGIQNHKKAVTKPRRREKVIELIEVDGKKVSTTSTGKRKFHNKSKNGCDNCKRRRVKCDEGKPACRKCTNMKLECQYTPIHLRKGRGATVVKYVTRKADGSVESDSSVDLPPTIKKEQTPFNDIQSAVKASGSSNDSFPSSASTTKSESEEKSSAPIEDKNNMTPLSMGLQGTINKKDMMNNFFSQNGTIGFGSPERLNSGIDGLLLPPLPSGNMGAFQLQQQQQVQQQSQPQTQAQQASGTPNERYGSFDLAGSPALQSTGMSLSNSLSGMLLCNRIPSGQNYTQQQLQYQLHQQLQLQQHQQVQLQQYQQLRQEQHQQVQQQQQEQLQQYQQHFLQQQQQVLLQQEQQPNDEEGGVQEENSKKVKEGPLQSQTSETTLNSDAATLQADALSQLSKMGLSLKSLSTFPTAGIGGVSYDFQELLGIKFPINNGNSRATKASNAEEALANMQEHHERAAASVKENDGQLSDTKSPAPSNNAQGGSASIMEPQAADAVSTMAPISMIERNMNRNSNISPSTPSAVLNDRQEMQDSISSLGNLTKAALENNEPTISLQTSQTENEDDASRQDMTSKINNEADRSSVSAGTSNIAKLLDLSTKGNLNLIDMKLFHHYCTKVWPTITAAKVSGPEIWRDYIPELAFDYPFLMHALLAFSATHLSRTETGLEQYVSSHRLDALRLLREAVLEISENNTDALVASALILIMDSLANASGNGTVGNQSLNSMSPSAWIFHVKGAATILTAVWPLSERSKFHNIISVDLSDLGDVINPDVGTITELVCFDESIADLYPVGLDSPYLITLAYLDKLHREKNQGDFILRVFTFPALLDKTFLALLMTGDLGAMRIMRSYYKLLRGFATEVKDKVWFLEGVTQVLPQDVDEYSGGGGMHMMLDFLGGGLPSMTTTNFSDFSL
Test: PBM E-score (8-mer binding enrichment) (E-score (-0.5 to 0.5)); higher = stronger / more preferred TF binding; most listed sequences are background and not binding sites
Conditions: protein concentration: 200 nM; construct: GST-full length
Method: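 Universal 'all 10-mer' protein binding microarrays (Agilent AMADID 015681) probed with GST-tagged S. cerevisiae TFs (full-length or DBD) made by in vitro transcription/translation (PURExpress), about 100-200 nM. Bound TF was detected with fluorescent anti-GST. Each ungapped 8-mer (which stands for itself and its reverse complement) is scored by the PBM enrichment score (E-score), a modified Wilcoxon-Mann-Whitney statistic from -0.5 to +0.5, computed with the Universal PBM Analysis Suite. Scale: above 0.35 generally sequence-specific binding.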

| Sequence | PBM E-score |
| --- | --- |
| ATGAGTCC | -0.189 |
| ACTGTTTC | -0.111 |
| AGCCCGAC | -0.171 |
| ACCTATCT | -0.16 |
| GACCCCTA | -0.252 |
| GATCGAGC | 0.0552 |
| CCCACGTC | -0.139 |
| GACAAAGC | 0.0238 |
| AATGAGGG | -0.16 |
| CTTGCACA | -0.188 |
| CGCGGCAG | -0.175 |
| GTTGTCTA | -0.0647 |
| ATCGACAG | -0.0101 |
| CACACAGA | -0.19 |
| AGCCTAAG | -0.151 |
| TATCGATA | -0.144 |
| ACCTGGAT | -0.137 |
| GGAGTAGA | -0.07 |
| ACGCGTAT | 0.333 |
| ACTGTCCA | -0.0712 |
| CCAAGACG | -0.201 |
| CTTGTCGA | -0.0213 |
| AGCTGGTC | -0.0412 |
| AACCTATA | 0.0515 |
| CGTCTAAG | -0.00419 |

| Sequence | PBM E-score |
| --- | --- |
| AATCTCAT | 0.112 |
| CTAGGGGA | -0.261 |
| CAGTCACA | -0.0909 |
| CCGTCTGC | -0.179 |
| AAATGTCG | -0.027 |
| AGCCAAAT | 0.0673 |
| TATTACAA | -0.0303 |
| ACAACGAG | 0.257 |
| ATGCGGTA | -0.0698 |
| TCGTCGCA | 0.169 |
| GAGCTGCC | -0.092 |
| CGGAAAGA | 0.0878 |
| CCAAACTA | -0.124 |
| AACGAACT | 0.371 |
| GACACTGC | -0.0962 |
| CCATAACC | 0.0368 |
| AAGGAGCA | -0.202 |
| CACAATCC | -0.133 |
| CTCGACAG | -0.0352 |
| ATTTTTAG | -0.265 |
| ACTCACGA | 0.00947 |
| CTGGTGTC | -0.0199 |
| TGATCACA | -0.161 |
| AGCAATGA | -0.235 |
| GGAGTTCA | -0.0689 |

| Sequence | PBM E-score |
| --- | --- |
| AGCAACGG | -0.0326 |
| ATGAGGCG | -0.181 |
| ATCGGTTG | 0.0684 |
| ACGATAGT | 0.308 |
| CTGGGGGC | -0.204 |
| TAGAACTA | -0.00975 |
| CGGCAATA | 0.108 |
| AGCCAGGC | -0.163 |
| CCTACGTA | 0.3 |
| CTGGATCA | -0.225 |
| AAATGGCG | -0.0033 |
| CGAATTCA | 0.0713 |
| GGAATTGA | -0.0637 |
| ACTAATGA | 0.015 |
| TCCGCTCA | -0.188 |
| ATTGAAAC | 0.0608 |
| GGGTTACA | 0.051 |
| ACGTATTA | 0.201 |
| CACTCGTA | 0.455 |
| ATCCTACC | -0.166 |
| CTCGCAGA | -0.0867 |
| AGCCGGTG | -0.104 |
| GAGGGTAC | 0.0828 |
| AGGTGATC | 0.0604 |
| ACGTCCAT | -0.0817 |

| Sequence | PBM E-score |
| --- | --- |
| AGCGCAGG | -0.228 |
| CGATCACG | 0.096 |
| CGGCCACG | -0.192 |
| CGCGAAGC | 0.085 |
| ACAGTCTC | -0.142 |
| CGGACTAC | -0.113 |
| CAGCAGGC | -0.131 |
| ACTTAGAG | -0.268 |
| GCACCTTA | -0.177 |
| CAGGATTC | -0.198 |
| ACCTGACA | -0.13 |
| GGGTGTAC | 0.212 |
| ATTACTGG | -0.275 |
| ACTATGTG | -0.176 |
| GTAGTCGA | 0.0599 |
| AGTACATG | -0.132 |
| ACTTCCGG | -0.163 |
| CAGCGGTC | -0.215 |
| AAGGGAGC | -0.164 |
| ACCTGAAA | -0.0264 |
| AAGCATGT | 0.0121 |
| GATAAAGC | -0.153 |
| CCCAGTCA | -0.266 |
| CCGGATCC | -0.0139 |
| TAAAAACA | 0.0575 |

| Sequence | PBM E-score |
| --- | --- |
| GCACAGCC | -0.0947 |
| ACCCGATG | 0.0221 |
| GCCGACAA | -0.0158 |
| ATCTTTGA | 0.0486 |
| CTTCAGCA | -0.132 |
| GTCTTGAA | 0.072 |
| AAGACTAG | -0.0706 |
| AAGCCCGT | 0.0277 |
| AATGGGAG | -0.179 |
| ACGTTGTG | 0.0616 |
| CGGCGACA | -0.134 |
| GAGAAATC | 0.116 |
| ACGTCTCC | 0.0582 |
| GACTCCGA | -0.241 |
| CCAAACGC | 0.292 |
| TGGGTAAA | 0.0235 |
| GGCATATA | 0.246 |
| ACCGCTGA | 0.123 |
| AATAAACA | 0.0907 |
| AGGTGGGA | -0.0594 |
| GATCATGC | -0.128 |
| CTAGGGTA | -0.249 |
| ACCTCGAC | -0.0283 |
| GTTCCAAA | 0.117 |
| AATAGCAG | -0.28 |

| Sequence | PBM E-score |
| --- | --- |
| AATCGGTG | -0.0843 |
| ATTCTATC | 0.0248 |
| AGGACACC | -0.124 |
| AAGGCAAG | -0.215 |
| AGGAAGTC | -0.232 |
| AAGTCAGT | -0.0232 |
| AGTAATGA | -0.109 |
| CGCGCCTC | -0.00311 |
| GCCCGACC | -0.27 |
| AGTAGATA | 0.167 |
| CGAGGAGA | -0.0212 |
| ACAGCGCG | -0.0289 |
| ATCTGTGC | -0.186 |
| AGCCCACC | -0.116 |
| GGGAAAAA | -0.0196 |
| ACATTGAT | 0.1 |
| AGTTGCCC | -0.2 |
| CGTCACGC | -0.00845 |
| AAAACAAA | 0.117 |
| GCATTTAC | -0.0255 |
| AATAGTTG | -0.125 |
| CCCGATCC | -0.258 |
| CAGAGGTC | -0.179 |
| GAGGGCGA | -0.218 |
| CTGATTCC | -0.277 |

| Sequence | PBM E-score |
| --- | --- |
| AAGCACGA | 0.0392 |
| CACGCCAC | -0.204 |
| CGGATTCC | -0.0494 |
| AGGTAACC | 0.0804 |
| ACACCAAA | 0.133 |
| GCTGGAAC | 0.0479 |
| GCACGTGC | 0.00298 |
| AAAATCGA | -0.118 |
| GCGTCTGA | -0.0194 |
| AAAATCCG | -0.0367 |
| ATACTATA | 0.064 |
| AACGATAT | 0.39 |
| CGTAAAAG | 0.405 |
| CGATGCGC | 0.128 |
| CAACTCAA | -0.0496 |
| CTGAGGCA | -0.14 |
| CTTAAGAC | -0.122 |
| CCGCGTAA | 0.165 |
| ATGCGCTA | -0.00733 |
| TAGTCAAA | 0.0497 |
| CATTGAGC | -0.271 |
| CGATCTTA | 0.189 |
| ACGGTCCT | -0.138 |
| CGAAGAGC | 0.045 |
| TTACGGAA | 0.258 |

| Sequence | PBM E-score |
| --- | --- |
| GTTAGTCA | 0.0718 |
| CACGCAAG | -0.156 |
| ACTGCACC | -0.109 |
| CGGGGACA | -0.103 |
| ATGATGGG | -0.237 |
| AGTGCCGG | -0.18 |
| AACCGTGT | 0.0637 |
| ACGAGACG | 0.366 |
| GTTTGCCA | 0.0485 |
| AAACCCAT | 0.0435 |
| CACTAAGC | 0.00304 |
| AGCTTGAT | -0.129 |
| ATAGCAAG | -0.168 |
| GCGTCAAC | -0.106 |
| AATGGACT | -0.108 |
| CTGACTGA | -0.127 |
| CGATCTCC | -0.0987 |
| TTTAGAAA | 0.133 |
| CGGTTTAC | 0.26 |
| AGTCCTGA | -0.291 |
| GCTCTATA | -0.0323 |
| AGAACAAA | 0.103 |
| CGCGCGAG | 0.00271 |
| CAGCTAGC | -0.247 |
| AAAGTGGG | 0.0771 |

| Sequence | PBM E-score |
| --- | --- |
| AATTATAT | 0.175 |
| CGCATGTC | 0.0261 |
| GATACATA | 0.0496 |
| CACGAGAG | 0.0635 |
| AATGGGAT | -0.124 |
| GACCTGAA | -0.0798 |
| CTAATCTC | 0.0838 |
| TCAGCTAA | 0.0522 |
| ACACCAGA | -0.00331 |
| AAACGTTA | 0.225 |
| CCAAGGGC | -0.208 |
| CGGAACCG | 0.119 |
| CGTAACCA | 0.223 |
| CCTTCCCC | -0.131 |
| CAGCGCCA | -0.136 |
| CAATTATC | 0.107 |
| GTAGCGAA | 0.223 |
| ATTCGCCG | 0.131 |
| CGCGTAAG | 0.205 |
